Assay results as given in patent US5512549A, “Glucagon-like insulinotropic peptide analogs, compositions, and methods of use” (Eli Lilly and Company, priority 1994, dated 1996).
Not every detail of the peptide structures is certain; ends, links or a residue may be inferred. Where a SMILES comes first, the peptide text is derived from it. The star is where a group is joined. Desaminohistidyl = O=C(CCc1c[nH]cn1)*; Decanoyl = CCCCCCCCCC(=O)*

Experiments:
Sprague Dawley rats = test: Rat I.V. Hyperglycemic (150 mg/dl) Clamp Test; type: in vivo; details: for Insulin Change AUC: 0-15 min; for GIR Change AUC: 0-30 min; for Max Insulin Change: 90 minute test period; for Duration of Insulin Effect: time average insulin change >0 ng/ml
Procedure: b) Hyperglycemic Clamp Studies
Experiments were conducted in chronically catheterized, normal, male Sprague Dawley rats weighing about 350 grams. At least a week prior to studies, surgery was performed on the rats under isoflurane anesthesia. Two catheters were implanted into the jugular vein for infusions of glucose and peptide and one catheter into the carotid artery for blood sampling. The catheters were exteriorized through the skin at the vertex of the head, filled with glycerol/heparin solution (3:1,v/v) and closed off with a one centimeter stainless steel plug. Animals were housed individually in wire mesh cages and allowed free access to standard rat chow diet and water.
Catheterized rats were fasted overnight prior to studies. On the morning of the experiment, rats were weighed and sampling tubings connected to their indwelling catheters. The tubings were enclosed in a light weight stainless steel spring for protection. During the study, rats were kept unrestrained in a plastic shoe box cage (12"×10"×12") with about one inch of bedding. After 15 minutes of acclimation, a basal sample was taken for measurement of insulin and glucose levels. At time -60 minutes, rats were given a bolus of 20% dextrose to raise plasma glucose to 150 mg/dl. The plasma glucose concentration was maintained at this level for the duration of the study by measuring the plasma glucose concentration every five minutes and adjusting the calibrated variable infusion pump accordingly. Blood samples were collected at -15 and 0 minutes for baseline measurements. Immediately after taking the zero minute sample, peptide (130-155 μM stock concentration, diluted in phosphate buffered saline) was injected via the jugular vein catheter and flushed with saline. Blood samples were taken for glucose and insulin determinations at 2, 4, 6, 8, 10, 12, 15, 20, 25, 30, 40, 50, 60, 70, 80, and 90 minutes. All blood samples were collected into syringes coated with sodium heparin, transferred into micro centrifuge tubes and placed on ice. Blood samples were then centrifuged in a micro centrifuge to separate the plasma component.
Plasma glucose levels were determined on the day of the study by the glucose oxidase method using the Beckman Glucose Analyzer 2, while the insulin concentrations were measured by a commercial kit (Diagnostic Products Corporation) with rat insulin standard.
Insulin change (the change in insulin from the baseline value) was calculated as the difference between the insulin concentration at time t and the average insulin concentration prior to injection of test substance. The area under the insulin change curve was calculated using the trapezoidal rule. Glucose infusion rate change (the percent change in the glucose infusion rate from the baseline value) was calculated as the difference between the glucose infusion rate value at time t and the average glucose infusion rate prior to injection of test substance, divided by the average glucose infusion rate prior to injection of test substance, times 100. The area under the glucose infusion rate change curve was calculated on the absolute glucose infusion rate change values (calculated as the difference between the glucose infusion rate value at time t and the glucose infusion rate prior to injection of test substance) using the trapezoidal rule. Values are listed as the mean ± the standard error of the mean (SEM).

beagles = test: Dog I.V. Hyperglycemic (150 mg/dl) Clamp Test; type: in vivo; details: I.V. 5.0 μg/kg
Procedure: a) Hyperglycemic Clamp Studies
Experiments were conducted in overnight-fasted, conscious, adult (1-2 years of age) male and female beagles weighing 8-15 kg. At least ten days prior to the study, animals were anesthetized with isoflurane, and a cut-down was made in the left or right inguinal region. Silastic catheters were inserted into the femoral artery and the proximal caudal femoral vein and secured with 4-0 silk suture. The free ends of the catheters were passed subcutaneously to the back using a trocar needle. The catheters were then filled with a glycerol/heparin solution (3:1, v/v; final heparin concentration of 250 KIU/ml), and the free ends were knotted and placed in a subcutaneous pocket to allow complete closure of the skin. Keflex® was administered both pre-operatively (20 mg/kg, IV and 20 mg/kg, I.M.) and post-operatively (250 mg, p.o. once daily for seven days) to prevent infections. Torbugesic (1.5 mg/kg, I.M.) was administered post-operativelyto control pain.
Blood was drawn just prior to the study day to determine the health of the animal. Only animals with hematocrits above 38% and leukocyte counts below 16,000/mm^3 were used.
The afternoon before the experiment, the free ends of the catheters were exteriorized from the subcutaneous pocket through a small incision made under local anesthesia (2% lidocaine), and the dog was fitted with a tether system jacket and collar assembly.
The morning of the experiment, the contents of the catheters were aspirated, the catheters were flushed with saline, and extension lines (protected by a stainless steel tether) were attached to the catheters. On mornings of IV injection experiments, an over-the-needle, teflon catheter was inserted percutaneously into a cephalic vein in preparation for the administration of an IV bolus of test substance. The dog was placed in a metabolic cage, and the catheter extension lines and tether were attached to a swivel system to allow the dog to move freely about the cage. At this time (-60 minutes), an exogenous infusion of glucose (50% w/v in water) was begun through the chronic venous catheter. Glucose was infused in a descending stepwise fashion over the first six minutes of the study to rapidly raise the plasma glucose concentration to 150 mg/dl. Plasma glucose concentrations were determined every 2.5 to 7.5 minutes throughout the remainder of the study, and the glucose infusion rate was adjusted appropriately to maintain the plasma glucose concentration at 150 mg/dl.
Sixty minutes after the start of the glucose infusion (time 0), test substance was administered either intravenously (1.0, 2.9, 5.0 or 10.0 μg/kg; dose dissolved in 2 ml of saline containing 0.3% dog albumin, w/v) through the previously inserted teflon catheter or subcutaneously (10 μg/kg; 150 μM in phosphate buffered saline) in the dorsal aspect of the neck.
Arterial blood samples (3.5 ml) were taken at -30, -15, 0, 2.5, 5, 7.5, 10, 12.5, 15, 20, 30, 45, 60, 75, 90, 105 and 120 minutes during the IV studies and at -30, -15, 0, 3, 6, 9, 12, 15, 20, 30, 45, 60, 75, 90, 105 and 120 minutes during the SC studies. Samples were collected in vacuum blood collection tubes containing disodium EDTA and immediately placed on ice. To prevent proteolytic cleavage of GLP-1(7-37) in the plasma samples, 1.5 ml of the EDTA containing blood were transferred to a polypropylene tube containing 40 μl of aprotinin (10,000 KIU/ml) and mixed well. The samples were centrifuged, and the resulting plasma was transferred to polypropylene test tubes and stored on ice for the duration of the study.
At the conclusion of the experiment, the animal was anesthetized (isoflurane); the catheters were flushed with fresh saline and filled with the glycerol/heparin mixture; the free ends of the catheters were knotted and placed subcutaneously as described earlier; and antibiotic was administered (300 mg Keflex®, I.M.). […]

Q: Which “Insulin Change AUC” value (Sprague Dawley rats; I.V. 0.05 μg/kg) does the source give for `CCCCCCCC(=O)NCCCC[C@H](NC(=O)[C@@H](NC(=O)[C@H](CC(C)C)NC(=O)[C@H](Cc1c[nH]c2ccccc12)NC(=O)[C@H](C)NC(=O)[C@@H](NC(=O)[C@H](Cc1ccccc1)NC(=O)[C@H](CCC(=O)O)NC(=O)[C@H](CCCNC(=N)N)NC(=O)[C@H](C)NC(=O)[C@H](C)NC(=O)[C@H](CCC(N)=O)NC(=O)CNC(=O)[C@H](CCC(=O)O)NC(=O)[C@H](CC(C)C)NC(=O)[C@H](Cc1ccc(O)cc1)NC(=O)[C@H](CO)NC(=O)[C@H](CO)NC(=O)[C@@H](NC(=O)[C@H](CC(=O)O)NC(=O)[C@H](CO)NC(=O)[C@@H](NC(=O)[C@H](Cc1ccccc1)NC(=O)[C@@H](NC(=O)CNC(=O)[C@H](CCC(=O)O)NC(=O)[C@H](C)NC(=O)[C@@H](N)Cc1c[nH]cn1)[C@@H](C)O)[C@@H](C)O)C(C)C)[C@@H](C)CC)C(C)C)C(=O)NCC(=O)N[C@@H](CCCNC(=N)N)C(=O)NCC(=O)O` [Arg^26-Lys^34-N^ε-octanoyl-GLP-1(7-37)OH, Arg^26 -Lys^34 -N^ε -octanoyl-GLP-1(7-37)OH] here?
A: Its value is 6.3 ± 1.4 ng·min/mL.

Q: And the “GIR Change AUC” value (Sprague Dawley rats; I.V. 0.05 μg/kg)?
A: Its value is 75 ± 32 mg/kg.

Q: What about the “Max Insulin Change” value (Sprague Dawley rats; I.V. 0.05 μg/kg) of the same compound?
A: The value was 0.7 ± 0.2 ng/mL.

Q: What about the “Duration of Insulin Effect” value (Sprague Dawley rats; I.V. 0.05 μg/kg) of the same compound?
A: The value was 30 min.

Q: What about the “Insulin Change AUC” value (Sprague Dawley rats; I.V. 1.0 μg/kg) of the same compound?
A: Its value is 35.5 ng·min/mL.

Q: And the “GIR Change AUC” value (Sprague Dawley rats; I.V. 1.0 μg/kg)?
A: Its value is 294 mg/kg.

Q: What about the “Max Insulin Change” value (Sprague Dawley rats; I.V. 1.0 μg/kg) of the same compound?
A: The value was 5.2 ± 1.8 ng/mL.

Q: What about the “Duration of Insulin Effect” value (Sprague Dawley rats; I.V. 1.0 μg/kg) of the same compound?
A: The value was 20 min.

Q: And the “Insulin Change AUC” value (Sprague Dawley rats; I.V. 2.0 μg/kg)?
A: The value was 32.5 ng·min/mL.

Q: What about the “GIR Change AUC” value (Sprague Dawley rats; I.V. 2.0 μg/kg) of the same compound?
A: Its value is 245 mg/kg.

Q: What about the “Max Insulin Change” value (Sprague Dawley rats; I.V. 2.0 μg/kg) of the same compound?
A: The value was 3.8 ± 0.9 ng/mL.

Q: What about the “Duration of Insulin Effect” value (Sprague Dawley rats; I.V. 2.0 μg/kg) of the same compound?
A: Its value is 10 min.

Q: What about the “Insulin Change AUC” value (Sprague Dawley rats; I.V. 4.0 μg/kg) of the same compound?
A: Its value is 35.7 ng·min/mL.

Q: What about the “GIR Change AUC” value (Sprague Dawley rats; I.V. 4.0 μg/kg) of the same compound?
A: The value was 274 mg/kg.

Q: What about the “Max Insulin Change” value (Sprague Dawley rats; I.V. 4.0 μg/kg) of the same compound?
A: The value was 4.7 ± 0.8 ng/mL.

Q: And the “Duration of Insulin Effect” value (Sprague Dawley rats; I.V. 4.0 μg/kg)?
A: The value was 20 min.

Q: How did the “Insulin Change AUC” value (Sprague Dawley rats; I.V. 1.0 μg/kg) turn out when `CCCCCCCC(=O)NCCCC[C@H](NC(=O)[C@@H](NC(=O)[C@H](CC(C)C)NC(=O)[C@H](Cc1c[nH]c2ccccc12)NC(=O)[C@H](C)NC(=O)[C@@H](NC(=O)[C@H](Cc1ccccc1)NC(=O)[C@H](CCC(=O)O)NC(=O)[C@H](CCCCN)NC(=O)[C@H](C)NC(=O)[C@H](C)NC(=O)[C@H](CCC(N)=O)NC(=O)CNC(=O)[C@H](CCC(=O)O)NC(=O)[C@H](CC(C)C)NC(=O)[C@H](Cc1ccc(O)cc1)NC(=O)[C@H](CO)NC(=O)[C@H](CO)NC(=O)[C@@H](NC(=O)[C@H](CC(=O)O)NC(=O)[C@H](CO)NC(=O)[C@@H](NC(=O)[C@H](Cc1ccccc1)NC(=O)[C@@H](NC(=O)CNC(=O)[C@H](CCC(=O)O)NC(=O)[C@H](C)NC(=O)CCc1c[nH]cn1)[C@@H](C)O)[C@@H](C)O)C(C)C)[C@@H](C)CC)C(C)C)C(=O)NCC(=O)N[C@@H](CCCNC(=N)N)C(=O)NCC(=O)O` [N-imidazopropionyl-Lys^34 -N^ε -octanoyl-GLP-1(8-37)OH] was run?
A: Its value is 7.6 ± 2.5 ng·min/mL.

Q: And the “GIR Change AUC” value (Sprague Dawley rats; I.V. 1.0 μg/kg)?
A: Its value is 183 mg/kg.

Q: And the “Max Insulin Change” value (Sprague Dawley rats; I.V. 1.0 μg/kg)?
A: The value was 1.0 ± 0.2 ng/mL.

Q: What about the “Duration of Insulin Effect” value (Sprague Dawley rats; I.V. 1.0 μg/kg) of the same compound?
A: The value was 5 min.

Q: `CCCCCCCCCC(=O)NCCCC[C@H](NC(=O)[C@@H](NC(=O)[C@H](CC(C)C)NC(=O)[C@H](Cc1c[nH]c2ccccc12)NC(=O)[C@H](C)NC(=O)[C@@H](NC(=O)[C@H](Cc1ccccc1)NC(=O)[C@H](CCC(=O)O)NC(=O)[C@H](CCCNC(=N)N)NC(=O)[C@H](C)NC(=O)[C@H](C)NC(=O)[C@H](CCC(N)=O)NC(=O)CNC(=O)[C@H](CCC(=O)O)NC(=O)[C@H](CC(C)C)NC(=O)[C@H](Cc1ccc(O)cc1)NC(=O)[C@H](CO)NC(=O)[C@H](CO)NC(=O)[C@@H](NC(=O)[C@H](CC(=O)O)NC(=O)[C@H](CO)NC(=O)[C@@H](NC(=O)[C@H](Cc1ccccc1)NC(=O)[C@@H](NC(=O)CNC(=O)[C@H](CCC(=O)O)NC(=O)[C@H](C)NC(=O)CCc1c[nH]cn1)[C@@H](C)O)[C@@H](C)O)C(C)C)[C@@H](C)CC)C(C)C)C(=O)NCC(=O)N[C@@H](CCCNC(=N)N)C(=O)NCC(=O)O` [N-imidazopropionyl-Arg^26 -Lys^34 -N^ε -decanoyl-GLP-1(8-37)OH] (Desaminohistidyl-AEGTFTSDVSSYLEGQAAREFIAWLVK(Decanoyl)GRG-OH) was tested. Which “GIR Change AUC” value (beagles; 0-60 min, mean ± SEM) did it give?
A: Its value is 236 ± 58 mg/kg.

Q: What about the “Insulin Change AUC” value (beagles; 0-60 min, mean ± SEM) of the same compound?
A: The value was 14 ± 10 ng·min/mL.

Q: What about the “Max Insulin Change” value (beagles; 120 minute test period, mean ± SEM) of the same compound?
A: The value was 0.9 ± 0.9 ng/mL.

Q: What about the “Duration of Insulin Effect” value (beagles; time average insulin change consistently ≥0.5 ng/ml) of the same compound?
A: The value was “not active”.

Q: What about the “Insulin Change AUC” value (Sprague Dawley rats; I.V. 1.0 μg/kg) of the same compound?
A: Its value is 4.5 ± 2.0 ng·min/mL.

Q: And the “GIR Change AUC” value (Sprague Dawley rats; I.V. 1.0 μg/kg)?
A: Its value is 83 ± 17 mg/kg.

Q: What about the “Max Insulin Change” value (Sprague Dawley rats; I.V. 1.0 μg/kg) of the same compound?
A: Its value is 0.8 ± 0.1 ng/mL.

Q: What about the “Duration of Insulin Effect” value (Sprague Dawley rats; I.V. 1.0 μg/kg) of the same compound?
A: Its value is 15 min.
